According to the supplement of paper PMC3334620:
Over roughly 33,000 sequences, “E-score (-0.5 to 0.5)” has its median near -0.016; the highest 2% begin near 0.31. This is one part of the list.

target: Cst6 (UniProt P40535); test: PBM E-score (8-mer binding enrichment) (E-score (-0.5 to 0.5)); higher = stronger / more preferred TF binding; most listed sequences are background and not binding sites; conditions: protein concentration: 200 nM; construct: GST-DNA-binding domain
Method in brief: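 PURExpress in vitro transcription/translation supplied GST-tagged yeast transcription factors, either full-length or DNA-binding domain. Applied at about 100-200 nM to universal all-10-mer Agilent arrays double-stranded by primer extension, the bound protein was detected with fluorescent anti-GST. E-scores, modified Wilcoxon-Mann-Whitney statistics, were given by the Universal PBM Analysis Suite to ungapped eight-base words pooled with their reverse complements after masliner normalisation.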

Sequence	PBM E-score
CGCGAGCA	-0.247
ATAGAATG	0.182
GTTTCTGA	0.221
AGACTAAC	-0.0674
ACCGTAAC	-0.0255
AACCAGAT	-0.0219
CGGACCAA	-0.0116
GGGAGTTA	-0.134
CGGGTCTC	-0.105
CTAAACGC	0.159
GCATGGGC	-0.152
ATTTCTGA	0.0722
TACCACCA	-0.157
AAGCCCCC	-0.414
ATACTTAG	-0.0181
GGCCTGCA	-0.378
AGTTTTCG	0.117
GGGGCAAC	-0.306
CCCTCATA	-0.146
CAATCCCC	-0.123
AGACCTAA	-0.182
TCTAGAAA	0.0203
TAATACGA	0.102
CTCTATAC	-0.125
AGCGCTAA	0.2

Sequence	PBM E-score
AAGTTAAG	-0.0646
ATTAGTGG	0.101
ACCGTTTA	0.138
ATACTCAA	0.225
CTCCAACA	-0.0106
CATACGAC	0.0917
CATTAGGC	-0.0705
AGTTCAAC	0.0452
CATGCCGA	0.0855
AGTCTACA	-0.128
CAACTGTG	-0.0636
AGGGGGCG	-0.302
ACCTTCCA	-0.0265
AGGGCTTA	-0.194
ACGACCTA	-0.115
ATGCAGTG	0.0501
AATTCGCT	0.238
AGCGTGAG	-0.0329
AATGTGGT	0.116
CGGACTCA	-0.149
TAACAAGA	0.0653
AATAACCC	0.0003
GGACTCCC	-0.335
AAATACAG	0.0865
GATATGAC	0.273

Sequence	PBM E-score
AATAGTCA	0.115
AGCAGGCC	-0.287
AACGTCTC	-0.0757
CTACGCTA	-0.0928
ATTTAAGG	0.0163
TGAGGGAA	-0.0338
AATCATGG	0.0769
ATTAATAA	0.223
ATCTCCGG	-0.108
ATCCTATG	-0.131
AACGAGCA	-0.0858
GCTCCAAA	-0.111
ATAATAGC	0.0648
CAACGCAC	-0.00354
CTAGTCTC	-0.14
TACACGTA	0.262
AATGAGGT	0.287
CCCTACAC	-0.182
CGTCATCA	0.487
CTGTGAGC	0.135
ATCTCGAA	0.137
ATTTCTGG	0.0967
GGAGGATA	-0.142
CAAACTTC	0.177
AGGTACTA	0.0656

Sequence	PBM E-score
CCCTGGGC	-0.223
CCGGGGCC	-0.296
CCCCCCCC	-0.414
TCGAGACA	-0.131
AAATGACA	0.298
ATTCCTGA	-0.0224
CTGCTACA	-0.0466
CGCGGAGA	-0.0412
CCGTGTCA	0.0651
TCGACTAA	0.0566
AAGGATCG	0.0512
CCCACAAG	-0.167
CAAGGAGC	-0.0255
CATGACTA	0.0239
AATTAATG	0.174
ACCTATCC	0.0003
CACTTAGC	-0.141
ACTTGTGG	-0.0826
AAATTTTC	0.079
CCTGTTCA	-0.157
ATTGTGGC	-0.0113
AAACGACC	-0.114
AAACCTCA	-0.013
CGTCCAGC	-0.261
GCATGAGC	-0.0643

Sequence	PBM E-score
ACACAGGA	-0.155
CCGTAGTC	-0.277
GAATGAGC	0.0955
GAGCTGGC	-0.167
GAGGACGC	-0.26
AACCCTAG	-0.264
TGTCGCAA	-0.0273
GTCCGATA	-0.234
CACGGACC	-0.0301
AAAACAGC	-0.0126
CCCCGGTA	-0.322
CACCCCCC	-0.355
AGTATCCG	-0.00831
ATATCCGA	0.133
ACGGAGTC	-0.0457
CCGTGCAC	0.0355
AAATGCCA	-0.00289
GGCGCGAC	0.209
AGAAAGTA	0.205
CCTCCCCC	-0.338
CATCGAGG	-0.113
AGTGCCCC	-0.169
GTGCTCAA	0.0979
ACCCACTA	-0.116
TAGGGTAA	0.0225

Sequence	PBM E-score
ACGTGAAA	0.234
CGCCATTC	0.00749
ATCATGAT	0.261
ACGTCAAG	0.373
AAGGCACA	0.185
GGTCATAA	0.213
CTCCGTTA	-0.0151
AATCAATC	0.229
GATGTTAA	0.183
ACAGATAA	0.0508
AGCGTACC	-0.157
CCCGAATC	-0.283
GTATGCGA	0.142
TCGCCTCA	0.0864
TCTCTCCA	-0.0706
TCCCAGAA	-0.0898
CCTTACTA	0.072
ACACTGTA	-0.00031
ATTATTTA	0.305
ATATTCGA	-0.111
ACGTGTAA	0.28
AAGCGCAG	-0.0668
CAAGGACC	-0.239
ATCCTCCC	-0.307
CATTACCA	0.138

Sequence	PBM E-score
AGGCGGGG	-0.116
GCTTTGAA	-0.0304
TGATCCCA	0.0272
ATGTAGTC	0.13
CACTACAG	0.0653
GGTAACCA	-0.124
CGGAGTAC	-0.307
CAGATGCC	-0.139
CCATTCAG	0.134
GACGGGGA	-0.233
CGCGGGCC	-0.0146
CGTGGAAC	-0.0795
ATTGTGGA	0.0779
ACGTGAAC	-0.00098
CATGGTAC	-0.108
GGATGGGA	-0.197
AGGTCCTA	-0.261
GCTTGGTA	-0.0538
CACTTCTA	0.0156
CTGATCAC	-0.0556
AAGAACGA	0.0922
CATCGGGG	-0.311
